Experiment [1] has as its target Histamine N-methyltransferase (Homo sapiens) (UniProt P50135). The experiment in a line: Confirmatory Screen for Target Class Profiling of Small Molecule Inhibitors of Methyltransferases (AID 1745852).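 Further: inhibitor potency for blocking SAH production.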 To be noted: MTase-Glo luminescence, SAH detection, recombinant enzyme; measured here: HNMT inhibition potency.
The target of experiment [2] is Nicotinamide N-methyltransferase (Homo sapiens) (UniProt P40261). The experiment is described as above. The settings on record: MTase-Glo luminescence, SAH detection, recombinant enzyme; measured here: NNMT inhibition potency.
UniProt P40261, sequence (P40261 whole entry, looked up): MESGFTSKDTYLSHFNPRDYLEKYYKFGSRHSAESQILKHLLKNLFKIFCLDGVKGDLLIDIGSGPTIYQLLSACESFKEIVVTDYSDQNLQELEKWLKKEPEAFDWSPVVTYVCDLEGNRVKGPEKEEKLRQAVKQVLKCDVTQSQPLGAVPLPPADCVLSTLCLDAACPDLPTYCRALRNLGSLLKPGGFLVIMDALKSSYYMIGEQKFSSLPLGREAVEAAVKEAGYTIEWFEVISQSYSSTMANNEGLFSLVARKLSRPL
For experiment [3], the target named is Phenylethanolamine N-methyltransferase (Homo sapiens) (UniProt P11086). The description is as above. The settings on record: MTase-Glo luminescence, SAH detection, recombinant enzyme; measured here: PNMT inhibition potency.
UniProt P11086, sequence (P11086 whole entry, looked up): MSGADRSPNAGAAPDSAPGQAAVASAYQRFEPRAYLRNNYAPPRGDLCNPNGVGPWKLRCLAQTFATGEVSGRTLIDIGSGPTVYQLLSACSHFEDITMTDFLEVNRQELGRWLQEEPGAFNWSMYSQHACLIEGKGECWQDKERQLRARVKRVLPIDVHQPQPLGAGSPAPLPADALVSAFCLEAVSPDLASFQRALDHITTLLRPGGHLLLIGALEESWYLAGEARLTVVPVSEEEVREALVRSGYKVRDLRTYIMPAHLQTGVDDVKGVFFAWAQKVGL
Experiment [4] in a line: qHTS drug screen for cell cycle checkpoint inhibitors in PARPi-resistant BRCA-mutant ovarian cancer cell lines. (AID 1963452). To be noted: PEO1/OlaR viability, CellTiter-Glo luminescence, 96 h. In outline: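 PEO1, PEO4 and PEO1/OlaR ovarian cancer cells, 600 per well, exposed 96 h at 37C to a dilution series. Viability read by CellTiter-Glo luminescence, normalized to DMSO and empty wells; activity summarized as Z-AUC.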

Experiment [5] is described as follows: qHTS for identification of novel therapeutic agents for treatment of microphthalmiaassociated transcription factor (MiT) renal cell carcinoma (RCC) (AID 1963991). The settings on record: CellTiter-Glo, 48 h; for z-score: stronger effect = lower value. In outline: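 Curves over 11 concentrations were fitted to CellTiter-Glo luminescence, scaled between empty wells (0%) and DMSO (100%) viability. Cells were UOK109, UOK124 and UOK145 TFE3-fusion RCC lines at 500/well, exposed 48 hours at 37 C.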

Experiment [6] in a line: NCATS anti-infectives library activity on the primary C. elegans qHTS viability assay (AID 1745855). The settings on record: C. elegans worm area imaging, day 7; measured here: worm number, day 3. The procedure, abridged: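 Viability read-out is GFP fluorescence of PE254-GFP-FLuc C. elegans, measured by laser cytometry (488 nm) at day 0, 3 and 7. Ten L1 worms per well were incubated 7 days at 21 °C with compounds and bacterial capsules in S medium.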

Setting [7] is: measured here: PEO1 parental viability.
Setting [8] is: TFE3-RCC UOK109 viability, measured here: UOK109 Z-AUC.
[9] abbreviates: TFE3-RCC viability, measured here: UOK124 Z-AUC.
[10] abbreviates: TFE3-RCC viability, measured here: UOK124 cell viability.
[11] abbreviates: TFE3-RCC viability, measured here: UOK145 Z-AUC.
[12] abbreviates: TFE3-RCC viability, measured here: UOK145 cell viability.

Molecules are shown by their SMILES. Values joined by “and” are separate entries in the source; they are usually repeats but may differ in a detail not shown here. Equal values may be shown once. Some of the results follow. These are further read-outs of the screen, such as a control signal, another cell line or another target. No call is given for them. For some assays here: The list favours compounds with an active or inconclusive main result. The note in brackets gives the kind of curve behind each potency; many fits are weak.
Tags describe the fitted curve by direction and shape.

UniProt P50135, sequence (P50135 whole entry, looked up): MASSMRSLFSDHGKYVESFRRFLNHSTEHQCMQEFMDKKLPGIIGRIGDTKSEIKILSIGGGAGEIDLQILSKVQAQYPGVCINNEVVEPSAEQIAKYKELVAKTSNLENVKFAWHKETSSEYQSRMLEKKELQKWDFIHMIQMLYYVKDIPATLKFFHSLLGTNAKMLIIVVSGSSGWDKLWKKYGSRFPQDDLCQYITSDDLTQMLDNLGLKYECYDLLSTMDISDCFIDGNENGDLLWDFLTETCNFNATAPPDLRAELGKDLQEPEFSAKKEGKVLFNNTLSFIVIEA

`CC(C)N(C[C@H]1O[C@@H](n2cnc3c(N)ncnc32)[C@H](O)[C@@H]1O)C1CC(CCc2nc3ccc(C(C)(C)C)cc3[nH]2)C1` (some centres not stated): the IC50 is 19.2 µM [falling, partial curve] in experiment [1]; 1.21 µM [falling, full curve] and 1.52 µM [falling, full curve] in experiment [2]; 5.41 µM [falling, full curve] and 6.07 µM [falling, full curve] in experiment [3]. Besides, the AC50 in experiment [4] (setting [7]) was 0.123 µM [rising, full curve, poor fit].
With `Cc1ccccc1Sc1ccc(/C=C2\SC(=S)NC2=O)cc1[N+](=O)[O-]`, the IC50 in experiment [1] is 30.4 µM [falling, single point]; in experiment [2] it was 24.1 µM [falling, partial curve]; in experiment [3], 27.1 µM [falling, single point].
As for `CN(C)c1nc(NC2CCC(NC(=O)c3ccc(F)c(F)c3)CC2)nc2ccccc12` (configuration not stated), the IC50 is 17.1 µM [falling, partial curve] in experiment [1] and 24.1 µM [falling, partial curve, poor fit] in experiment [2].
For `CNC1CCC(N(Cc2cccc(-c3ccncc3)c2)C(=O)c2sc3ccccc3c2Cl)CC1` (configuration not stated), the IC50 in experiment [1] was 24.1 µM [falling, partial curve]; in experiment [2], 19.2 µM [falling, partial curve]. For the same compound, the AC50 was 15.5 µM [falling, single point] in experiment [4] (setting [7]); 21.9 µM [falling, single point] in experiment [4] (measured here: PEO4 viability); 10.5 µM [falling, full curve] in experiment [5] (setting [10]); 16.6 µM [falling, partial curve] in experiment [5] (setting [12]). For the same compound, the z-score is 0.0961 in experiment [5] (setting [8]), -0.478 in experiment [5] (setting [9]) and 0.0924 in experiment [5] (setting [11]).
Take `NCCCNc1ccc(Nc2nccc(Nc3cc(C4CC4)[nH]n3)n2)cc1`: the IC50 is 4.29 µM [falling, full curve] in experiment [1]; 24.1 µM [falling, partial curve] in experiment [2]; 21.5 µM [falling, partial curve] in experiment [3].
Consider `CN1CCN(CCOc2cc(OC3CCOCC3)c3c(Nc4c(Cl)ccc5c4OCO5)ncnc3c2)CC1`, for which the IC50 in experiment [1] was 6.07 µM [falling, full curve]; in experiment [2], 24.1 µM [falling, single point]. Also, the AC50 in experiment [6] was 0.023 µM [falling, full curve, poor fit]; in experiment [4] (setting [7]) it was 15.5 µM [falling, partial curve]; in experiment [4] (measured here: PEO4 viability) it was 19.5 µM [falling, partial curve]; in experiment [5] (setting [10]), 16.6 µM [falling, partial curve]; in experiment [5] (setting [12]), 3.72 µM [falling, full curve]. In addition, the values for the z-score in experiment [5] (setting [8]), in experiment [5] (setting [9]) and in experiment [5] (setting [11]) were -1.98, -0.156 and -0.208, respectively.
As to `Cc1cnc(Nc2ccc(OCCN3CCCC3)cc2)nc1Nc1cccc(S(=O)(=O)NC(C)(C)C)c1`, the IC50 in experiment [1] was 15.2 µM [falling, partial curve]; in experiment [2], 21.5 µM [falling, partial curve]. Besides, the AC50 was 5.49 µM [falling, full curve] in experiment [4] (setting [7]); 5.49 µM [falling, partial curve] in experiment [4] (measured here: PEO4 viability); 26.4 µM [falling, partial curve, poor fit] in experiment [5] (setting [10]). Further, the z-score in experiment [5] (setting [8]) was 0.72; in experiment [5] (setting [9]) it was 0.182; in experiment [5] (setting [11]), 0.852.
With `C=CC(=O)Nc1cccc(Nc2nc(Nc3ccc(Oc4ccnc(C(=O)NC)c4)cc3)ncc2F)c1`, the IC50 was 6.07 µM [falling, full curve] in experiment [1] and 10.8 µM [falling, partial curve] in experiment [2]. Moreover, the AC50 in experiment [4] (setting [7]) is 15.5 µM [falling, partial curve]; in experiment [4] (measured here: PEO4 viability), 9.77 µM [falling, partial curve, poor fit].
As for `N#Cc1ccc2[nH]cc(CCCCN3CCN(c4ccc5oc(C(N)=O)cc5c4)CC3)c2c1`, the half-maximal inhibitory concentration (IC50) in experiment [1] is 13.6 µM [falling, partial curve]; in experiment [2], 8.57 µM [falling, full curve].
`CC(C)CNc1ccnc(NCc2csc(-c3ccccc3)n2)n1`: the IC50 is 6.81 µM [falling, partial curve] in experiment [1] and 24.1 µM [falling, partial curve] in experiment [2]. The AC50 in experiment [4] (setting [7]) was 1.95 µM [falling, full curve]; in experiment [4] (measured here: PEO4 viability), 19.5 µM [falling, single point]; in experiment [5] (setting [10]), 16.6 µM [falling, partial curve]; in experiment [5] (setting [12]) it was 29.6 µM [falling, single point]. Further, the z-score in experiment [5] (setting [8]) was -0.145; in experiment [5] (setting [9]), -0.511; in experiment [5] (setting [11]) it was -0.289.
Take `NC(=O)c1cnc(-c2ccc(C3(N)CCC3)cc2)c(-c2ccccc2)c1`: the IC50 in experiment [1] was 21.5 µM [falling, partial curve]; in experiment [2], 21.5 µM [falling, partial curve]. Further, the z-score in experiment [5] (setting [8]) is -0.105; in experiment [5] (setting [9]), -0.855; in experiment [5] (setting [11]), 0.355. The half-maximal activity concentration (AC50) in experiment [5] (setting [10]) is 4.18 µM [falling, partial curve, poor fit].
`CN1CCC(N2CC[C@H](c3nc4ccccc4[nH]3)C2)CC1`: the IC50 in experiment [1] is 44.1 µM [falling, partial curve]; in experiment [2], 39.3 µM [falling, partial curve, poor fit].
